In PubChem BioAssay AID1745853 (National Center for Advancing Translational Sciences (NCATS), 2022):
Values joined by “and” are separate entries in the source; they are usually repeats but may differ in a detail not shown here. Equal entries are not always repeated. This is one part of the list. Shown are side measurements of this screen, not its main read-out; they come without a call.

Columns and labels:
Experiment in all cases: Primary Screen for Target Class Profiling of Small Molecule Inhibitors of Methyltransferases
[1] = target: Glycine N-methyltransferase (Homo sapiens) (UniProt Q14749); conditions: purified enzyme, MTase-Glo SAH luminescence; measured here: GNMT inhibition; at 40 µM; stronger effect = lower value
In short: (§1)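 Each enzyme was reacted with SAM and its substrate, with compounds tested once at 40 uM; SAH formed was read by MTase-Glo luminescence.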

[2] = target: Guanidinoacetate N-methyltransferase (Homo sapiens) (UniProt Q14353); conditions: purified enzyme, MTase-Glo SAH luminescence; measured here: GAMT inhibition; at 40 µM; stronger effect = lower value
In short: as §1

[3] = target: Histamine N-methyltransferase (Homo sapiens) (UniProt P50135); conditions: purified enzyme, MTase-Glo SAH luminescence; measured here: HNMT inhibition; at 40 µM; stronger effect = lower value
In short: as §1

[4] = target: Nicotinamide N-methyltransferase (Homo sapiens) (UniProt P40261); conditions: purified enzyme, MTase-Glo SAH luminescence; measured here: NNMT inhibition; at 40 µM; stronger effect = lower value
In short: as §1

[5] = target: Phenylethanolamine N-methyltransferase (Homo sapiens) (UniProt P11086); conditions: purified enzyme, MTase-Glo SAH luminescence; measured here: PNMT inhibition; at 40 µM; stronger effect = lower value
In short: as §1
% is scaled to controls: 0 for no effect and ±100 for the full control effect.

SMILES | activity change, negative = inhibition [1] | activity change, negative = inhibition [2] [%] | activity change, negative = inhibition [3] | activity change, negative = inhibition [4] | activity change, negative = inhibition [5]
C=C1C(=O)O[C@@H]2C[C@H](C)[C@@H]3CC(=O)C(C)=C3C[C@H]12 | 2.07% | 3.42 | 9.23% | -6.55% | 6.04%
CCCCNc1nc2c(-c3ccc(C)cc3)nnn2c2ccccc12 | 5.87% | 2.41 | 2.85% | 4.19% | -0.189%
Cc1ccc(Cn2c(=O)c3ccc(C(=O)NC(C)C)cc3n3c(=O)n(CC(=O)NC(C)C)nc23)cc1 | 6.16% | 4.97 | 12.6% | 3.76% | 5.99%
Cc1cccc(N2CCN(S(=O)(=O)c3ccc4[nH]c(=O)[nH]c4c3)CC2)c1C | 10.9% | 0 | 4.26% | -8.29% | 0.675%
NCC(O)C1CCCCCCC1 (stereo not given) | 2.78% | 8.83 | 7.01% | -7.67% | -41.2%
O=C(OCC1=CC(Cl)C(O)C(OC(=O)c2ccccc2)C1O)c1ccccc1 (stereo not given) | 0% | 6.51 | 6.31% | -7.28% | 4.45%
CN1CCN(C(=O)N2CCC3(CCCN(C4CCOCC4)C3=O)C2)CC1 (stereo not given) | 1.14% | -0.613 | 1.81% | -3.59% | 1.38%
COc1cccc(CN2CCC(Oc3ccc(-c4noc(C5CC5)n4)cc3)C2)c1 (stereo not given) | -9.9% | -5.82 | -14.4% | -21.3% | -9.48%
CCc1cn(C[C@H](NC(=O)C2CCCC2)C(=O)O)c(=O)[nH]c1=O | -0.297% | 2.06 | 1.99% | -1.09% | -0.732%
COc1cc2c(cc1OC)N1C(=O)C[C@]34C=CCN5CC[C@@H]2[C@@H](CC3)[C@]514 | -1.75% | 8.98 | 6.45% | -56.1% | 3.05%
CC(C)CCNC(=O)c1cc2n(n1)CC(C)(C(=O)NCc1ccc(F)cc1)N(C)C2=O (stereo not given) | 4.7% | 0.686 | -0.534% | 6.57% | 1.79%
COC(=O)C[C@@H]1C(C(=O)O)=CO[C@@H](O[C@@H]2O[C@H](CO)[C@@H](O)[C@H](O)[C@H]2O)/C1=C\COC(=O)/C=C\c1ccccc1 | 0% | -11.1 | -1.54% | -22.3% | -1.49%
CC1(C(=O)NC2CCCCC2)Cn2c(ccc2-c2ccco2)C(=O)N1CCCN1CCOCC1 (stereo not given) | 1.98% | 4.86 | 4.28% | 8.25% | 0.688%
Cn1cnc([S+](=O)([O-])N2CCN(C(=O)N3CC4CC(C3)[C@H]3CCCC(=O)N3C4)CC2)c1 (stereo not given in full) | -7.35% | -13.4 | -5.58% | -16% | -16%
O=C(O)c1cc(N(Cc2ccc(C3CCCCC3)cc2)C(=O)c2ccc(Oc3ccccc3)cc2)ccc1O | -7.63% | -55.1 | -5.85% | -94.8% | -54.4%
CCO[C@H]1CN(Cc2cnc(SCc3ccccc3)nc2)C[C@@H]1O | -6.88% | -9.52 | -2.85% | -15.6% | -13.2%
CN1CCC(=C2c3ccccc3C=Cc3ccccc32)CC1 | 10.1% | 14.3 | -9.76% | -15.1% | 1.3%
CC1(C(=O)NC2CCCCCC2)Cn2c(c(-n3cccc3)c3ccccc32)C(=O)N1Cc1cccnc1 (stereo not given) | -3.72% | 4.22 | 5.67% | -11.7% | 0.894%
CCCn1c(=O)c2ccc(Cl)cc2n2c(=O)n(CC(=O)c3ccc(C)cc3)nc12 | -0.458% | 0.696 | -0.645% | 2.71% | 1.81%
C[C@@H]1CN(Cc2cc(C(N)=O)oc2C(C)(C)C)CC[C@@]1(O)C1CCC1 | -4.81% | -3.12 | -3.13% | -6.77% | -3.16%
O=C(CSc1nnc2n(Cc3ccc(F)cc3)c(=O)c3ccccc3n12)NCc1ccccc1 | 1.57% | 0 | 9.21% | 2.03% | 2.18%
COc1cc2c(Nc3ccc(NC(=O)c4ccccc4)cc3)ncnc2cc1OCCCN1CCOCC1 | -15% | 8.38 | -10.9% | -11.2% | -2.64%
CC(CN1C(=O)c2cc3ccccc3n2CC1(C)C(=O)NCc1ccccc1)c1ccccc1 (stereo not given) | 1.26% | 4.47 | -12% | 1.77% | -3.89%
Cc1ccc(N2C(=O)c3ccc(-c4ccco4)n3CC2(C)C(=O)NC2CCCC2)cc1Cl (stereo not given) | -2.01% | 3.04 | 2.44% | -0.6% | -4.59%
CC(C)Cn1c(=O)c2ccccc2n2c(=O)n(CC(=O)Nc3ccccc3F)nc12 | -2.61% | -1.16 | 2.72% | -11.4% | -2.92%
CC(=O)Nc1ccc(C(=O)Nc2ccccc2N)cc1 | 8.26% and -7.59% | 7.1 | 6.08% and 0.386% | -4.65% and -7.67% | 4.77% and 25.3%
COc1ccc2[nH]cc(C(=O)Cn3nc4n(Cc5ccc(F)cc5)c(=O)c5ccccc5n4c3=O)c2c1 | 5.29% | 0.133 | 3.92% | 1.35% | 2.26%
O=S(=O)(NC[C@H]1O[C@@H](CO)[C@@H](O)[C@H]1N1CCN(c2ccc(F)cc2)CC1)c1ccc(F)cc1 | 0.424% | -3.63 | 1.72% | -1.71% | 0.571%
CC(C)(C)c1cc2n(n1)CC(C)(C(=O)NC1CCCCCC1)N(c1ccc(F)cc1F)C2=O (stereo not given) | 2.59% | 0 | 3.96% | 1.55% | -0.161%
CC(C)(Cc1ccccc1)NCC(O)c1ccc(O)c(NS(C)(=O)=O)c1 (stereo not given) | -1.37% | -6.67 | -5.19% | -14.1% | -8.18%
